From the RNAGym collection of RNA variant scans (doi:10.1093/nar/gkz1192)
Read counts are not given, so values of variants with three or more changes are uncertain.

B1: CPEB3 Ribozyme (parent)
chain: UAACAGGGGGCCACAGCAGAAGCGUUCACGUCGCAGCCCCUGUCAGAUUCUGGUGAAUCUGCGAAUUCUGCUGUAUAUCUC

Variants of: B1
Test: self-cleavage, relative activity (ratio to wild type); higher = more cleavage; in vitro, sequencing
In short: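 Relative activity compares each variant's cleaved/total read fraction with that of the unmutated ribozyme. To get these fractions, barcoded CPEB3 ribozyme libraries from rounds of error-prone PCR were transcribed with T7 RNA polymerase for 5 hours at 37°C and then given 15 min of DNase I treatment before EDTA was added. The RNAs were reverse transcribed with template switching and sequenced on Illumina, and DNA sequencing linked barcodes to variants. A minimum of 5 reads applied, and three batches were averaged.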

Variant	self-cleavage
UAACAGGGGGCCACGGCAGAAGCGCUCACGUCGCAGCCCCUGUCAGAUUCUGGUGAAUCUGCGAAUCCAGCUGUAUUUCUC	0.15
UAACAGGGGGCCACGGCAGAAGCGCUCACGUCGCAGCCCCUGUCAGAUUCUGGUGAAUCUGCGAAUUCUGCUGUAUAUCCC	0.21
UAACAGGGGGCCACGGCAGAAGCGGUCACGUCGCAGCCCCUGUCAGAUUCUGGUGAAUCUGCGAAUUCUGCUGUAUUUCUC	0.16
UAACAGGGGGCCACGGCAGAAGCGGUCAUGUCGCAGCCCCUGCCAGAUUCCGGUGUAUCUGCGAAUUCUGCUGUAUAUCUC	0.06
UAACAGGGGGCCACGGCAGAAGCGGUCACGUCGCAGCCCCUGUCAUAUUCUGGUGAAUCUGCGAAUUCUGCUGUAUAACUC	0.48
UAACAGGGGGCCACGGCAGAAGCGGACACGUCGCAGCCCCUGUCAGAUUCUGGUGAAUCUGCGAAUUCUGCUGUAUAUCAC	0.44
UAACAGGGGGCCACGGCAGAAGCGUACACGUCGCAGCCCCUGUCGGAUUCUUGUGAAUCCGCGAAUUCUGCUGUAUAUCUC	1.02
UAACAGGGGGCCACGGCAGAAGCGUACACGUCGCAGCCCCUGUCGGAUUCUGGUUAGUCUGCGAAUUCUGCAGCAUAUCUC	0.07
UAACAGGGGGCCACGGCAGAAGCGUACACGUCGCAGCCCCUGUCUGAUUCUGGUGAAUCCGCGAAUUCUGCUGUAUAUCUC	0.18
UAACAGGGGGCCACGGCAGAAGCGUACACGUCGCAGCCCCUGUCUGAUUCUGGUGAAUCUGCGAAUUCUGCUGUAAGUCUC	0.28
UAACAGGGGGCCACGGCAGAAGCGUACACGUCGCAGCCCCUGUCAGAUUCUGGUGGAUCUGCGAAUUCUGCUGUAUAUCUC	0.65
UAACAGGGGGCCACGGCAGAAGCGUACACGUCGCAGCCCCUGUCAGAUUCUGGUGAAUCUGCGGAUUCUGCUGUAUACCUC	0.22
UAACAGGGGGCCACGGCAGAAGCGUACACGUCGCAGCCCCUGUCAGAUUCUGGUGAAUCUGCGAAUUCUGCUGUCUAUCUC	0.73
UAACAGGGGGCCACGGCAGAAGCGUACAGGUCGCAGCCCCUGUCAGAUUCUGGUGAAUCUGCGAAUUCUGCUGUAUAUCUC	0.08
UAACAGGGGGCCACGGCAGAAGCGUACACGUCGCAGCCCCUGUCAGAUUCUGGUGAAUCUGCUAAUUCCGCUGUAUAUCUC	0.29
UAACAGGGGGCCACGGCAGAAGCGUACACGUCGCAGCCCCAGUCGGAUUCUGGUGAAUCUGCGGAUUCUGCUGAAUAUCUC	0.22
UAACAGGGGGCCACGGCAGAAGCGUACACGUCGCAGCCCCAGUCAGAUUCUGGUGAAUCUGCGGAUUCUGCUGAAUAUCUC	0.14

Variant	self-cleavage
UAACAGGGGGCCACGGCAGAAGCGUACACGUCGCAGCCCCCGUCUGAUUCUGGUGAAUCAGCGAAUACUGCUGUAUAUCUC	0.1
UAACAGGGGGCCACGGCAGAAGCGUACACGUCGCAGCCCCCGUCAGGUUCUGGUGAAUCUGCGAAUUCUGCUGUGUAUCUC	0.36
UAACAGGGGGCCACGGCAGAAGCGUACACGUCGCAGCCCCGGUCAGGUUCUGGCGAAUCUGCGAAUUCUGCUGUAUAUCUC	0.05
UAACAGGGGGCCACGGCAGAAGCGUACACGUCGCAGCCCCGGUCAGAUUCUGGUGGAUCUGCGAAUUCUGCUGUAUAUCUC	0.25
UAACAGGGGGCCACGGCAGAAGCGUACACGUCGCAGCCCCUGUCAGACUCUGGUGAAUCUGCGGAUUCUGCUGUAUAUCUC	0.32
UAACAGGGGGCCACGGCAGAAGCGUACACGUCGCAGCCCCUGUCAGACUCCGGUGAAUCCGCGAAUUCUGCUGUUUAUCUC	0.14
UAACAGGGGGCCACGGCAGAAGCGUACACGUCGCAGCCCCUGUCAGAUUCUGGCGAUUCUGCGAAUUCUGCUGUAUAUCUC	0.19
UAACAGGGGGCCACGGCAGAAGCGUACACGUCGCAGCCCCUGUCAGAUUCUGGUGAAUCUGCGAAUUCUGCCGUAUGUCUC	1.01
UAACAGGGGGCCACGGCAGAAGCGUACACGUCGCAGCCCCUGUCAGAUUCUGGUGAAUCUGCGAAUUCUGCUGCAUAUCUC	1.1
UAACAGGGGGCCACGGCAGAAGCGUCCGCGUCGCAGCCCCUGUCAGAUUCUGGUGAAUCUGCGAAUUCUGCUGUAUAUCUC	0.06
UAACAGGGGGCCACGGCAGAAGCGUCCGCGUCGCAGCCCCCGUCAGAUUCUGGUGAAUCUGCGAAUCCUGCUGUAUAUCUC	0.04
UAACAGGGGGCCACGGCAGAAGCGUCCGCGUCGCAGCCCCUGUCAGAUUCUGGUGAAUCUGCGAAUUCAGCUGUGUGUCUC	0.05
UAACAGGGGGCCACGGCAGAAGCGUCCUCGUCGCAGCCCCUGUCAGGCUCUGGUGAAGCUGCGAAUCCUGCUGUAUAUCUC	0.18
UAACAGGGGGCCACGGCAGAAGCGUCCACGUCGCCGCCCCUGUCAGAUUCUGCUGAAUCUGCGAAUUCUGCUGUAUAUCUC	0.16
UAACAGGGGGCCACGGCAGAAGCGUCCACGUCGCUGCCCCUGUCAGAUUCUGGCGAAUCUGCGAAUUCUGCUGUAUACCUC	0.43
UAACAGGGGGCCACGGCAGAAGCGUCCACGUCGCAGCCCCUGUCCGAUUCUGGUGAAUCUGCGAAUUCUGCUGUAUAUCUC	0.37
UAACAGGGGGCCACGGCAGAAGCGUCCACGUCGCAGCCCCUGUCCGAUUCCGGUGAAUCUGCGAAUUCAGCUGUAUAUCUC	0.11
